# Inconclusive results, whose numbers are uncertain, are shown with a selection of clear calls. For some of these results: A potency beside an inconclusive call is a rough fit, not a confirmed value. Activity calls are given as the source filed them. Unless noted, calls follow the shape of the dose curve; as a rule, active = well fitted curve in the direction sought with a large enough effect in the repeat runs; inconclusive = weak or mixed curves; inactive = no such curve, though single readings can be large; an effect the other way counts as inactive or inconclusive.
# Tests used:
# [1] = target: Peroxisome proliferator-activated receptor gamma (Homo sapiens) (UniProt P37231); experiment: qHTS assay to identify small molecule antagonists of the peroxisome proliferator-activated receptor gamma (PPARg) signaling pathway (AID 743191; calls by dose curve; also: nearly all actives have a fitted effect of over 30% in size; as to ratio activity, negative = inhibition: % is scaled to controls: 0 for no effect and ±100 for the full control effect); details: HEK293H PPARg-UAS-bla, beta-lactamase ratio, antagonist, 17 h
# Method in brief: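 Beta-lactamase reporter under UAS control in HEK293H PPARg-bla cells; compound treatment 17 h at 37C. Read-out: fluorescence intensity after 1 h room-temperature incubation with LiveBLAzer B/G FRET substrate.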
# [2] = qHTS assay for small molecule agonists of the antioxidant response element (ARE) signaling pathway (AID 743202; active = well fitted activation curve with a large enough effect in the signal ratio in the repeat runs, not every such curve was filed as active; inconclusive = weak or mixed curves, or effect the other way; inactive = no such curve, though single readings can be large or run the other way; the % refers to the signal ratio; as to activation: % is scaled to controls: 0 for no effect and ±100 for the full control effect); details: HepG2 ARE-bla reporter, beta-lactamase FRET, 16 h; activation: at 73.3 µM (top of the series) unless noted
# Method in brief: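 Beta-lactamase reporter activity, read as fluorescence intensity, reflects ARE/Nrf2 pathway induction in HepG2 cells after 16 h compound exposure at 37 C; substrate loading was 2 h at room temperature.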
# [3] = qHTS assay for small molecule agonists of the antioxidant response element (ARE) signaling pathway - cell viability counter screen (AID 743203; calls by dose curve; also: nearly all actives have a fitted effect of over 55% in size); details: ARE-bla HepG2 viability, CellTiter-Glo luminescence, 16 h; viability change, negative = cytotoxic: at 73.3 µM (top of the series)
# Method in brief: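 Viability counter screen: CellTiter-Glo luminescence, read after 30 min at room temperature, in ARE-bla HepG2 wells. Compound exposure lasted 16 h at 37C/5% CO2, following a 5 h pre-incubation of the cells after plating.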
# [4] = qHTS assay for small molecule activators of the heat shock response signaling pathway - cell viability counter screen (AID 743209); details: HSE-bla HeLa viability, CellTiter-Glo luminescence, 5 h; activity change, negative = cytotoxicity: at 62.6 µM (top of the series); also: nearly all actives have a fitted effect of over 50% in size
# Method in brief: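 Cytotoxicity counter screen run in the same wells as the heat-shock bla reporter assay: HeLa HSE-bla cells, 5 h compound exposure at 37 C, viability read by CellTiter-Glo luminescence.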
# [5] = qHTS assay for small molecule activators of the heat shock response signaling pathway (AID 743210; active = well fitted activation curve with a large enough effect in the signal ratio in the repeat runs, with a control signal flat, not every such curve was filed as active; inconclusive = weak or mixed curves; the % refers to the signal ratio); details: HeLa HSE-bla reporter, beta-lactamase ratio, 5 h; activation: at 62.6 µM (top of the series)
# Method in brief: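 Fluorescence from a cleaved B/G FRET substrate (2.5 h, room temp) reports HSE-driven beta-lactamase in HeLa cells treated 5 h at 37 C with DMSO-dissolved compounds.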
# [6] = qHTS assay to identify small molecule agonists of the peroxisome proliferator-activated receptor delta (PPARd) signaling pathway - cell viability counter screen (AID 743211); details: PPARd-bla HEK293H viability, CellTiter-Glo luminescence, 17 h; activity change, negative = cytotoxicity: at 62.6 µM (top of the series); also: nearly all actives have a fitted effect of over 55% in size
# Method in brief: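 Tox21 library compounds, delivered in DMSO, were incubated 17 h with PPARd-bla HEK293H cells; cytotoxicity was taken from CellTiter-Glo luminescence read 30 min after reagent addition.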
# [7] = target: Peroxisome proliferator-activated receptor delta (Homo sapiens) (UniProt Q03181); experiment: qHTS assay to identify small molecule agonists of the peroxisome proliferator-activated receptor delta (PPARd) signaling pathway (AID 743212; calls by dose curve;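 also: HEK293H cells with PPARd UAS beta-lactamase reporter GeneBLAzer system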; as to activation: % is scaled to controls: 0 for no effect and ±100 for the full control effect); details: HEK293H PPARd-UAS-bla, beta-lactamase FRET ratio, 17 h; activation: at 62.6 µM (top of the series) unless noted
# Method in brief: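 Steps: seed PPARd-bla HEK293H cells; incubate 5 h, 37 C, 5% CO2; add compounds in DMSO; incubate, 37 C; add LiveBLAzer B/G FRET substrate; hold 2 h at room temperature; measure fluorescence.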
# [8] = qHTS assay to identify small molecule antagonists of the peroxisome proliferator-activated receptor delta (PPARd) signaling pathway - cell viability counter screen (AID 743213); details: PPARd-bla HEK293H viability, CellTiter-Glo luminescence, 17 h; viability change, negative = cytotoxic: at 62 µM (top of the series) unless noted; also: nearly all actives have a fitted effect of over 50% in size
# Method in brief: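 In this counter screen, HEK293H cells carrying a UAS-beta-lactamase reporter are co-treated with test compounds and 300 nM L165041 (final) for 17 h at 37 C; cell viability is quantified by CellTiter-Glo luminescence.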
# [9] = target: Peroxisome proliferator-activated receptor delta (Homo sapiens) (UniProt Q03181); experiment: qHTS assay to identify small molecule antagonists of the peroxisome proliferator-activated receptor delta (PPARd) signaling pathway (AID 743215; active = well fitted inhibition curve with a large enough effect in the signal ratio in the repeat runs, not every such curve was filed as active; inconclusive = weak or mixed curves, or effect the other way; inactive = no such curve, though single readings can be large or run the other way; the % refers to the signal ratio;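 also: cells stimulated with agonist L165041 at 300 nM final during compound exposure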; as to ratio activity, negative = inhibition: % is scaled to controls: 0 for no effect and ±100 for the full control effect); details: HEK293H PPARd-UAS-bla, beta-lactamase FRET ratio, antagonist, 17 h; ratio activity, negative = inhibition: at 62 µM (top of the series) unless noted
# Method in brief: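 Agonist L165041 (300 nM final) added with compound to PPARd-bla HEK293H UAS-bla reporter cells; 17 h incubation at 37 C. Read-out: LiveBLAzer FRET substrate, 2 h at room temperature, fluorescence intensity.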
# [10] = qHTS assay to identify small molecule agonists of the farnesoid-X-receptor (FXR) signaling pathway - cell viability counter screen (AID 743218); details: FXR-bla HEK293T viability, CellTiter-Glo luminescence, 16 h; viability change, negative = cytotoxic: at 62.6 µM (top of the series) unless noted; also: nearly all actives have a fitted effect of over 45% in size
# Method in brief: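 Viability counter screen in the same wells: CellTiter-Glo luminescence, 30 min room-temperature incubation, measured after the beta-lactamase read. Cells were GeneBLAzer FXR-UAS-bla HEK 293T, compound-treated 16 h at 37C.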
# [11] = qHTS assay to identify small molecule antagonists of the farnesoid-X-receptor (FXR) signaling pathway - cell viability counter screen (AID 743221; active = well fitted cell-killing curve with a large enough effect in the repeat runs, not every such curve was filed as active; inconclusive = weak or mixed curves, or effect the other way; inactive = no such curve, though single readings can be large or run the other way; also: nearly all actives have a fitted effect of over 50% in size); details: FXR-bla HEK293T viability, CellTiter-Glo luminescence, 16 h; activity change, negative = cytotoxicity: at 62.6 µM (top of the series)
# Method in brief: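 Cytotoxicity is taken from ATP luminescence (CellTiter-Glo, 30 min, room temperature) in FXR-bla HEK 293T cells previously incubated 16 h at 37 C with compound and chenodeoxycholic acid at 50 uM final.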
# [12] = target: Vitamin D3 receptor (Homo sapiens) (UniProt P11473); experiment: qHTS assay to identify small molecule agonists of the vitamin D receptor (VDR) signaling pathway (AID 743222; calls by dose curve); details: HEK293T VDR-UAS-bla, beta-lactamase FRET ratio, 16 h; activation: at 63.5 µM (top of the series) unless noted
# Method in brief: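 Agonist mode, beta-lactamase reporter: fluorescence from LiveBLAzer B/G FRET substrate (2 h, room temperature) read after 16 h compound treatment at 37 C of VDR-bla cells, which were pre-incubated 4 h after seeding.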
# [13] = target: Vitamin D3 receptor (Homo sapiens) (UniProt P11473); experiment: qHTS assay to identify small molecule antagonists of the vitamin D receptor (VDR) signaling pathway (AID 743223; active = well fitted inhibition curve with a large enough effect in the signal ratio in the repeat runs, not every such curve was filed as active; inconclusive = weak or mixed curves, or effect the other way; inactive = no such curve, though single readings can be large or run the other way; the % refers to the signal ratio); details: VDR-UAS-bla HEK293T, beta-lactamase FRET ratio, 16 h; activity change, negative = inhibition: at 61 µM (top of the series) unless noted
# Method in brief: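 Quantitative HTS in VDR-bla reporter cells stimulated with 1alpha,25-dihydroxyvitamin D3, 3 nM final. Compound exposure 16 h, 37C, 5% CO2. Read-out: beta-lactamase FRET substrate fluorescence, 2 h RT.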
# [14] = qHTS assay to identify small molecule antagonists of the peroxisome proliferator-activated receptor gamma (PPARg) signaling pathway - cell viability counter screen (AID 743194); details: PPARg-bla HEK293H viability, CellTiter-Glo luminescence, 17 h, co-treated with 50 nM rosiglitazone; activity change, negative = cytotoxicity: at 62.6 µM (top of the series); also: nearly all actives have a fitted effect of over 55% in size
# Method in brief: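 Viability was measured as CellTiter-Glo luminescence in GeneBLAzer PPARg UAS-bla HEK293H cells. These cells had been exposed 17 h at 37 C to compounds together with rosiglitazone at 50 nM final, with the beta-lactamase readout taken in the same wells.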
# [15] = target: Bile acid receptor (Homo sapiens) (UniProt Q96RI1); experiment: qHTS assay to identify small molecule agonists of the farnesoid-X-receptor (FXR) signaling pathway (AID 743220; active = well fitted activation curve with a large enough effect in the signal ratio in the repeat runs, not every such curve was filed as active; inconclusive = weak or mixed curves, or effect the other way; the % refers to the signal ratio); details: HEK293T FXR-UAS-bla, beta-lactamase FRET ratio, 16 h; activation: at 62.6 µM (top of the series) unless noted
# Method in brief: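 FXR-UAS-bla HEK 293T cells carrying a UAS-driven beta-lactamase reporter were plated for 5 h at 37C/5% CO2, then exposed to DMSO-dissolved Tox21 10K compounds for 16 h at 37C. A LiveBLAzer B/G FRET substrate was loaded for 2 h at room temperature before fluorescence reading.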
# [16] = target: Bile acid receptor (Homo sapiens) (UniProt Q96RI1); experiment: qHTS assay to identify small molecule antagonists of the farnesoid-X-receptor (FXR) signaling pathway (AID 743217; active = well fitted inhibition curve with a large enough effect in the signal ratio in the repeat runs, not every such curve was filed as active; inconclusive = weak or mixed curves, or effect the other way; inactive = no such curve, though single readings can be large or run the other way; the % refers to the signal ratio); details: HEK293T FXR-UAS-bla, beta-lactamase ratio, CDCA-stimulated, 16 h; activity change, negative = inhibition: at 62.6 µM (top of the series) unless noted
# Method in brief: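 Antagonist mode: chenodeoxycholic acid at 50 uM final stimulates a UAS-driven beta-lactamase reporter in HEK 293T FXR-bla cells during 16 h, 37C compound exposure. Read-out is FRET substrate fluorescence after 2 h at room temperature.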
# [17] = ratio activity, negative = inhibition: at 62.6 µM (top of the series) unless noted
# Potency is read from the fitted curve at half-maximal effect; tags tell the direction and shape of the fitted curve or compound fluorescence and quenching.
# UniProt Q96RI1, sequence (Q96RI1 whole entry, looked up): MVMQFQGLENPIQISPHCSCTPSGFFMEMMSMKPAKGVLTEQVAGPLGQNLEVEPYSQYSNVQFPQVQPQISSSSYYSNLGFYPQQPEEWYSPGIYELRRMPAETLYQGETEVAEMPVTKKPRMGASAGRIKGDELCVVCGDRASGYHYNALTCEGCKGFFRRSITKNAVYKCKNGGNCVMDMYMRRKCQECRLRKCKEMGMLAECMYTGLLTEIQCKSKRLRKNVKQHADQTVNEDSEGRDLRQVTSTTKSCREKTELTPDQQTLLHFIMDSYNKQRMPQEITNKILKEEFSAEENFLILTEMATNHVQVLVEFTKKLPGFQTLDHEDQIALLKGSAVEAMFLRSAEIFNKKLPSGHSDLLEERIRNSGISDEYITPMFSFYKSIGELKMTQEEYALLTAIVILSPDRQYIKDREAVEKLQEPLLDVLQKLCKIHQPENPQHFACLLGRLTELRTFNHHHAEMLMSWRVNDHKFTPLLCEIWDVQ
# UniProt P11473, sequence (P11473 whole entry, looked up): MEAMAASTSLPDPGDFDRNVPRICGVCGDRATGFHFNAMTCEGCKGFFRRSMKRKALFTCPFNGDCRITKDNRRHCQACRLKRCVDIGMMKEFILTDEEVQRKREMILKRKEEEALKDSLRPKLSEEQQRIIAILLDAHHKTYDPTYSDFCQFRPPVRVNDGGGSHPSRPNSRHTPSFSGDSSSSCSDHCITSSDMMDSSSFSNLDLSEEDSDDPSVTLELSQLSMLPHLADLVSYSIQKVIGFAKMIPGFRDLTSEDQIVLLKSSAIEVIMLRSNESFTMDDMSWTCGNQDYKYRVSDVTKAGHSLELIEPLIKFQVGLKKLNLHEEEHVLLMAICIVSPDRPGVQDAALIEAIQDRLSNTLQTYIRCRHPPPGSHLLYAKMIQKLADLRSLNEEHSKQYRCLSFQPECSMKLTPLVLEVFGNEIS
# UniProt Q03181, sequence (Q03181 whole entry, looked up): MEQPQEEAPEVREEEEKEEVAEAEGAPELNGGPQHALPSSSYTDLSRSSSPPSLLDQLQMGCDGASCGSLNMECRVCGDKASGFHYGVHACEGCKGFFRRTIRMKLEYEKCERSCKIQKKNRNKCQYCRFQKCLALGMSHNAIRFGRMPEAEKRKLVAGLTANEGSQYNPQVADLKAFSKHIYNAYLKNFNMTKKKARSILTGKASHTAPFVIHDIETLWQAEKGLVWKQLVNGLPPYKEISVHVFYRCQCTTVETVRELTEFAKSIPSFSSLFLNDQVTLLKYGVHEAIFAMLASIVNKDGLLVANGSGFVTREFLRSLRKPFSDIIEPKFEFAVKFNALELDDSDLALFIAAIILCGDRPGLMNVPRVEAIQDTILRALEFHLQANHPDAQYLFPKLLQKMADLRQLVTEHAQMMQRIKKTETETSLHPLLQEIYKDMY
# UniProt P37231, sequence (P37231 whole entry, looked up): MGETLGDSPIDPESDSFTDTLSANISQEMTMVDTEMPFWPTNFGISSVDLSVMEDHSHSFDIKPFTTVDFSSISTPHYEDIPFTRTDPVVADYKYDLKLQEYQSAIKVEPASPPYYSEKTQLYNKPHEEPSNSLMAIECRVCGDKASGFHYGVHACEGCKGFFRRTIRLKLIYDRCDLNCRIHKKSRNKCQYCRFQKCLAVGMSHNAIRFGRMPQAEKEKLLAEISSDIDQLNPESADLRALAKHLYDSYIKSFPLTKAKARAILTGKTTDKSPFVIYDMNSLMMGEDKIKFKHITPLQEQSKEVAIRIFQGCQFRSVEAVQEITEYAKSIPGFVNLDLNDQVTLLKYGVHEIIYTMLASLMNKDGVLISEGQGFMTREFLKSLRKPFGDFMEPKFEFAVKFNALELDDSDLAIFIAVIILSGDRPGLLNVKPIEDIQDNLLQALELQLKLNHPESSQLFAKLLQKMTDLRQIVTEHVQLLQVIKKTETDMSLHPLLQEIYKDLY
smiles,measurement,setting,value
CCCCN(CCCC)CC(O)c1cc(Cl)cc2c1-c1ccc(Cl)cc1/C2=C/c1ccc(Cl)cc1 (configuration not stated),"ratio activity, negative = inhibition",[1]; [17],inconclusive: -30.5%
same,Potency,[2],inactive
same,Potency,[3],"inconclusive: 33.5 µM [cytotoxic, single point]"
same,Potency,[4],"inconclusive: 37.6 µM [cytotoxic, single point]"
same,Potency,[5],inconclusive: 33.5 µM
same,Potency,[6],"inconclusive: 33.5 µM [cytotoxic, single point]"
same,activation,[7],inconclusive: -13.7%
same,Potency,[8],active: 29.8 µM
same,"ratio activity, negative = inhibition",[9],inconclusive: -51.7%
same,Potency,[10],active: 29.8 µM
same,Potency,[11],inconclusive: 26.6 µM
same,activation,[12],inconclusive: -23.6%
same,Potency,[13],inactive
Clc1ccccc1-c1nc(-c2ccncc2)no1,Potency,[1]; [17],inactive
same,Potency,[2],active: 1.68 µM
O=C(Cl)c1ccc([N+](=O)[O-])cc1,Potency,[1]; [17],inactive
same,Potency,[2],inactive
CC(O)COc1ccccc1 (configuration not stated),"ratio activity, negative = inhibition",[1]; at 62.6 µM (top of the series),inconclusive: 9.78%
same,"ratio activity, negative = inhibition",[1]; at 81.1 µM (top of the series),inconclusive: 7.42%
same,Potency,[14],"inconclusive: 70.1 µM [rising, partial curve, poor fit]"
same,Potency,[15],inactive
same,Potency,[12],"inconclusive: 30.9 µM [rising, partial curve, poor fit]"
same,Potency,[13],inactive
CCCCCCCCC(=O)OCC(C)OC(=O)CCCCCCCC (configuration not stated),"ratio activity, negative = inhibition",[1]; [17],inconclusive: -22.6% [at 81.1 µM]
same,Potency,[14],inactive
same,Potency,[13],inactive
CN(C)[C@@H](CCOc1cccc2ccccc12)c1ccccc1,Potency,[1]; [17],"inconclusive: 10.6 µM [inhibitor, partial curve, poor fit]"
same,Potency,[14],"inconclusive: 15 µM [cytotoxic, partial curve]"
same,Potency,[2],inconclusive: 33.5 µM [single point]
same,Potency,[3],"inconclusive: 26.6 µM [cytotoxic, partial curve]"
same,Potency,[7],inactive
same,Potency,[8],"inconclusive: 23.7 µM [cytotoxic, partial curve, poor fit]"
same,Potency,[10],"inconclusive: 16.8 µM [cytotoxic, partial curve, poor fit]"
same,Potency,[12],"inconclusive: 15 µM [rising, partial curve, poor fit]"
CC(C)CCCCCCOC(=O)C1CCCCC1C(=O)OCCCCCCC(C)C (configuration not stated),"ratio activity, negative = inhibition",[1]; [17],inconclusive: 13.6%
same,Potency,[14],inactive
same,"ratio activity, negative = inhibition",[9],inconclusive: 5.31%
same,Potency,[13],inactive
CCCCCCC(CO)CCCC (configuration not stated),"ratio activity, negative = inhibition",[1]; [17],inconclusive: -10.8%
same,Potency,[14],"inconclusive: 0.0389 µM [cytotoxic, full curve, poor fit]"
same,Potency,[3],"inconclusive: 27.3 µM [cytotoxic, single point]"
same,Potency,[10],"inconclusive: 0.0692 µM [rising, full curve, poor fit]"
C[C@@H](CN(C)C)CN1c2ccccc2Sc2ccccc21,Potency,[1]; [17],inconclusive: 10.6 µM [inhibitor]
same,Potency,[14],inconclusive: 11.9 µM [cytotoxic]
same,Potency,[2],"inconclusive: 13.3 µM [rising, full curve, poor fit]"
same,Potency,[6],active: 23.7 µM
same,Potency,[7],"inconclusive: 16.8 µM [rising, partial curve]"
same,Potency,[8],active: 26.6 µM
same,"activity change, negative = inhibition",[16],inconclusive: -19%
same,Potency,[10],"inconclusive: 26.6 µM [cytotoxic, partial curve]"
same,Potency,[11],"inconclusive: 21.1 µM [falling, partial curve]"
same,Potency,[12],inactive
same,"activity change, negative = inhibition",[13],inconclusive: -34%
CC(=O)c1ccccc1,"ratio activity, negative = inhibition",[1]; [17],inconclusive: 18.9%
same,Potency,[14],inactive
same,Potency,[9],inactive
same,Potency,[10],"inconclusive: 0.0143 µM [rising, full curve, poor fit]"
COC(=O)c1nc(Cl)c(Cl)nc1N,Potency,[1]; [17],"inconclusive: 11.9 µM [fluorescent, full curve]"
same,Potency,[14],active: 26.6 µM
same,Potency,[2],inconclusive: 9.44 µM
same,Potency,[4],active: 5.31 µM
same,Potency,[5],inconclusive: 13.9 µM
same,Potency,[6],active: 29.8 µM
same,Potency,[7],"inconclusive: 23.7 µM [falling, partial curve, poor fit]"
same,Potency,[8],active: 29.8 µM
same,Potency,[9],"inconclusive: 18.8 µM [activator, partial curve]"
same,Potency,[16],"inconclusive: 4.73 µM [fluorescent, partial curve, poor fit]"
same,Potency,[10],"inconclusive: 33.5 µM [cytotoxic, single point]"
same,Potency,[15],active: 29.8 µM
same,Potency,[11],"inconclusive: 26.6 µM [falling, partial curve, poor fit]"
same,Potency,[12],active: 11.9 µM
same,Potency,[13],"inconclusive: 9.52 µM [fluorescent, partial curve]"
CCC(Cl)C(Cl)C(Cl)CC(Cl)C(Cl)C(C)Cl (configuration not stated),Potency,[1]; [17],inactive
same,Potency,[14],"inconclusive: 11 µM [cytotoxic, full curve, poor fit]"
same,Potency,[2],inconclusive: 68.6 µM
same,Potency,[5],"inconclusive: 54.9 µM [falling, partial curve, poor fit]"
same,Potency,[6],"inconclusive: 34.7 µM [cytotoxic, partial curve]"
same,activation,[7],inconclusive: 1.38%
same,Potency,[8],"inconclusive: 61.6 µM [cytotoxic, partial curve, poor fit]"
same,Potency,[16],"inconclusive: 43.6 µM [rising, partial curve, poor fit]"
same,Potency,[10],"inconclusive: 49 µM [cytotoxic, single point]"
same,Potency,[11],"inconclusive: 21.9 µM [falling, partial curve, poor fit]"

# — PubChem BioAssay (Tox21)
